# Laboratory results taken from the supplement of paper PMC8728848.
# The other results are listed elsewhere or left out.
# B1: Sialidase (Vibrio cholerae), P37060 (protein)
# chain: GAMALFDYNATGDTEFDSPAKQGWMQDNTNNGSGVLTNADGMPAWLVQGIGGRAQWTYSLSTNQHAQASSFGWRMTTEMKVLSGGMITNYYANGTQRVLPIISLDSSGNLVVEFEGQTGRTVLATGTAATEYHKFELVFLPGSNPSASFYFDGKLIRDNIQPTASKQNMIVWGNGSSNTDGVAAYRDIKFEIQGDALNGSMALFDYNATGDTEFDSPAKQGWMQDNTNNGSGVLTNADGMPAWLVQGIGGRAQWTYSLSTNQHAQASSFGWRMTTEMKVLSGGMITNYYANGTQRVLPIISLDSSGNLVVEFEGQTGRTVLATGTAATEYHKFELVFLPGSNPSASFYFDGKLIRDNIQPTASKQNMIVWGNGSSNTDGVAAYRDIKFEIQGDLQALGMALFDYNATGDTEFDSPAKQGWMQDNTNNGSGVLTNADGMPAWLVQGIGGRAQWTYSLSTNQHAQASSFGWRMTTEMKVLSGGMITNYYANGTQRVLPIISLDSSGNLVVEFEGQTGRTVLATGTAATEYHKFELVFLPGSNPSASFYFDGKLIRDNIQPTASKQNMIVWGNGSSNTDGVAAYRDIKFEIQGD
# Legend:
# Experiment in all cases: glycan array binding signal (z-score within array); higher = stronger binding
# Conditions in all cases: glycan notation: IUPAC condensed, linker removed
# [1] = target: Gal(a1-2)Gal
# Summary of the method: (§1)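 Glycan array data came from 3228 arrays in the Consortium for Functional Glycomics database, and only arrays with an available protein sequence were kept. Glycan names were put into IUPAC-condensed notation, and columns mapping to the same glycan were averaged. The binding signal is a within-array Z-score, averaged across arrays of one protein sequence run at different concentrations or buffers and across linkers. A negative Z-score can be read as non-binding.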
# [2] = target: Gal(a1-3)Gal
# Summary of the method: as §1
# [3] = target: Gal(a1-3)Gal(b1-3)GlcNAc
# Summary of the method: as §1
# [4] = target: Gal(a1-3)Gal(b1-4)Glc
# Summary of the method: as §1
# [5] = target: Gal(a1-3)Gal(b1-4)GlcNAc
# Summary of the method: as §1
# [6] = target: Gal(a1-3)Gal(b1-4)[Fuc(a1-3)]GlcNAc
# Summary of the method: as §1
# [7] = target: Gal(a1-3)Gal(b1-4)[Fuc(a1-3)]GlcNAc(b1-2)Man(a1-3)[Gal(a1-3)Gal(b1-4)[Fuc(a1-3)]GlcNAc(b1-2)Man(a1-6)]Man(b1-4)GlcNAc(b1-4)GlcNAc
# Summary of the method: as §1
# [8] = target: Gal(a1-3)GalNAc
# Summary of the method: as §1
# [9] = target: Gal(a1-3)[Gal(a1-4)]Gal(b1-4)GlcNAc
# Summary of the method: as §1
# [10] = target: Gal(a1-4)Gal(b1-4)Glc
# Summary of the method: as §1
# [11] = target: Gal(a1-4)Gal(b1-4)GlcNAc
# Summary of the method: as §1
# [12] = target: Gal(a1-4)Gal(b1-4)GlcNAc(b1-3)Gal(b1-4)Glc
# Summary of the method: as §1
# [13] = target: Gal(a1-4)GlcNAc
# Summary of the method: as §1
# [14] = target: Gal(a1-6)Glc
# Summary of the method: as §1
# [15] = target: Gal(b1-2)Gal
# Summary of the method: as §1
# [16] = target: Gal(b1-3)Gal
# Summary of the method: as §1
# [17] = target: Gal(b1-3)Gal(b1-4)GlcNAc
# Summary of the method: as §1
# [18] = target: Gal(b1-3)Gal(b1-4)GlcNAc(b1-2)Man(a1-3)[Gal(b1-3)Gal(b1-4)GlcNAc(b1-2)Man(a1-6)]Man(b1-4)GlcNAc(b1-4)GlcNAc
# Summary of the method: as §1
# [19] = target: Gal(b1-3)GalNAc
# Summary of the method: as §1
# [20] = target: Gal(b1-3)GalNAc(a1-3)[Fuc(a1-2)]Gal(b1-4)Glc
# Summary of the method: as §1
# [21] = target: Gal(b1-3)GalNAc(a1-3)[Fuc(a1-2)]Gal(b1-4)GlcNAc
# Summary of the method: as §1
# [22] = target: Gal(b1-3)GalNAc(b1-3)Gal(a1-4)Gal(b1-4)Glc
# Summary of the method: as §1
# [23] = target: Gal(b1-3)GalNAc(b1-4)Gal(b1-4)Glc
# Summary of the method: as §1
# [24] = target: Gal(b1-3)GalNAc(b1-4)[Neu5Ac(a2-3)]Gal(b1-4)Glc
# Summary of the method: as §1
# [25] = target: Gal(b1-3)GlcNAc
# Summary of the method: as §1
# [26] = target: Gal(b1-3)GlcNAc(b1-2)Man(a1-3)[Gal(b1-3)GlcNAc(b1-2)Man(a1-6)]Man(b1-4)GlcNAc(b1-4)GlcNAc
# Summary of the method: as §1
# [27] = target: Gal(b1-3)GlcNAc(b1-2)Man(a1-3)[Gal(b1-3)GlcNAc(b1-2)Man(a1-6)]Man(b1-4)GlcNAc(b1-4)[Fuc(a1-6)]GlcNAc
# Summary of the method: as §1
# [28] = target: Gal(b1-3)GlcNAc(b1-3)Gal(b1-3)GlcNAc
# Summary of the method: as §1
# [29] = target: Gal(b1-3)GlcNAc(b1-3)Gal(b1-4)Glc
# Summary of the method: as §1
# [30] = target: Gal(b1-3)GlcNAc(b1-3)Gal(b1-4)GlcNAc
# Summary of the method: as §1
# [31] = target: Gal(b1-3)[Fuc(a1-4)]GlcNAc
# Summary of the method: as §1
# [32] = target: Gal(b1-3)[Fuc(a1-4)]GlcNAc(b1-2)Man(a1-3)[Gal(b1-3)[Fuc(a1-4)]GlcNAc(b1-2)Man(a1-6)]Man(b1-4)GlcNAc(b1-4)GlcNAc
# Summary of the method: as §1
# [33] = target: Gal(b1-3)[Fuc(a1-4)]GlcNAc(b1-2)Man(a1-3)[Gal(b1-3)[Fuc(a1-4)]GlcNAc(b1-2)Man(a1-6)]Man(b1-4)GlcNAc(b1-4)[Fuc(a1-6)]GlcNAc
# Summary of the method: as §1
# [34] = target: Gal(b1-3)[Fuc(a1-4)]GlcNAc(b1-3)Gal(b1-3)[Fuc(a1-4)]GlcNAc
# Summary of the method: as §1
# [35] = target: Gal(b1-3)[Fuc(a1-4)]GlcNAc(b1-3)Gal(b1-4)GlcNAc
# Summary of the method: as §1
# [36] = target: Gal(b1-3)[Fuc(a1-4)]GlcNAc(b1-3)Gal(b1-4)[Fuc(a1-3)]GlcNAc
# Summary of the method: as §1
# [37] = target: Gal(b1-3)[GlcNAc(b1-6)]GalNAc
# Summary of the method: as §1
# [38] = target: Gal(b1-3)[Neu5Ac(a2-6)]GalNAc
# Summary of the method: as §1
# [39] = target: Gal(b1-3)[Neu5Ac(a2-6)]GlcNAc(b1-6)Gal(b1-4)Glc
# Summary of the method: as §1
# [40] = target: Gal(b1-3)[Neu5Ac(b2-6)]GalNAc
# Summary of the method: as §1
# [41] = target: Gal(b1-4)GalNAc(a1-3)[Fuc(a1-2)]Gal(b1-4)GlcNAc
# Summary of the method: as §1
# [42] = target: Gal(b1-4)GalNAc(b1-3)[Fuc(a1-2)]Gal(b1-4)GlcNAc
# Summary of the method: as §1
# [43] = target: Gal(b1-4)Glc
# Summary of the method: as §1
# [44] = target: Gal(b1-4)Glc6S
# Summary of the method: as §1
# [45] = target: Gal(b1-4)GlcNAc
# Summary of the method: as §1
# [46] = target: Gal(b1-4)GlcNAc(a1-6)Gal(b1-4)GlcNAc
# Summary of the method: as §1
# [47] = target: Gal(b1-4)GlcNAc(b1-2)Man(a1-3)Man(b1-4)GlcNAc(b1-4)GlcNAc
# Summary of the method: as §1
# [48] = target: Gal(b1-4)GlcNAc(b1-2)Man(a1-3)[Gal(b1-4)GlcNAc(b1-2)Man(a1-6)]Man(b1-4)GlcNAc(b1-4)GlcNAc
# Summary of the method: as §1
# [49] = target: Gal(b1-4)GlcNAc(b1-2)Man(a1-3)[Gal(b1-4)GlcNAc(b1-2)Man(a1-6)]Man(b1-4)GlcNAc(b1-4)[Fuc(a1-6)]GlcNAc
# Summary of the method: as §1
# [50] = target: Gal(b1-4)GlcNAc(b1-2)Man(a1-3)[Man(a1-6)]Man(b1-4)GlcNAc(b1-4)GlcNAc
# Summary of the method: as §1
# [51] = target: Gal(b1-4)GlcNAc(b1-2)Man(a1-6)Man(b1-4)GlcNAc(b1-4)GlcNAc
# Summary of the method: as §1
# [52] = target: Gal(b1-4)GlcNAc(b1-2)Man(a1-6)[Man(a1-3)]Man(b1-4)GlcNAc(b1-4)GlcNAc
# Summary of the method: as §1
# [53] = target: Gal(b1-4)GlcNAc(b1-2)[Gal(b1-4)GlcNAc(b1-4)]Man(a1-3)[Gal(b1-4)GlcNAc(b1-2)Man(a1-6)]Man(b1-4)GlcNAc(b1-4)GlcNAc
# Summary of the method: as §1
# [54] = target: Gal(b1-4)GlcNAc(b1-3)Gal(b1-3)GlcNAc
# Summary of the method: as §1
# [55] = target: Gal(b1-4)GlcNAc(b1-3)Gal(b1-4)Glc
# Summary of the method: as §1
# [56] = target: Gal(b1-4)GlcNAc(b1-3)Gal(b1-4)GlcNAc
# Summary of the method: as §1
# [57] = target: Gal(b1-4)GlcNAc(b1-3)Gal(b1-4)GlcNAc(b1-3)Gal(b1-4)GlcNAc
# Summary of the method: as §1
# [58] = target: Gal(b1-4)GlcNAc(b1-3)Gal(b1-4)[Fuc(a1-3)]GlcNAc(b1-3)Gal(b1-4)[Fuc(a1-3)]GlcNAc
# Summary of the method: as §1
# [59] = target: Gal(b1-4)GlcNAc(b1-3)GalNAc
# Summary of the method: as §1
# [60] = target: Gal(b1-4)GlcNAc(b1-3)[Gal(b1-4)GlcNAc(b1-6)]Gal(b1-4)GlcNAc
# Summary of the method: as §1
binder,measurement,setting,value
B1,glycan array binding signal (z-score),[1],0.268
same,glycan array binding signal (z-score),[2],-0.178
same,glycan array binding signal (z-score),[3],-0.508
same,glycan array binding signal (z-score),[4],-0.489
same,glycan array binding signal (z-score),[5],-0.184
same,glycan array binding signal (z-score),[6],-0.288
same,glycan array binding signal (z-score),[7],0.428
same,glycan array binding signal (z-score),[8],-0.472
same,glycan array binding signal (z-score),[9],-0.59
same,glycan array binding signal (z-score),[10],-0.612
same,glycan array binding signal (z-score),[11],-0.428
same,glycan array binding signal (z-score),[12],0.166
same,glycan array binding signal (z-score),[13],-0.507
same,glycan array binding signal (z-score),[14],-0.117
same,glycan array binding signal (z-score),[15],-0.582
same,glycan array binding signal (z-score),[16],-0.133
same,glycan array binding signal (z-score),[17],0.151
same,glycan array binding signal (z-score),[18],-0.557
same,glycan array binding signal (z-score),[19],-0.469
same,glycan array binding signal (z-score),[20],-0.504
same,glycan array binding signal (z-score),[21],-0.627
same,glycan array binding signal (z-score),[22],-0.387
same,glycan array binding signal (z-score),[23],-0.52
same,glycan array binding signal (z-score),[24],0.396
same,glycan array binding signal (z-score),[25],-0.195
same,glycan array binding signal (z-score),[26],-0.634
same,glycan array binding signal (z-score),[27],-0.491
same,glycan array binding signal (z-score),[28],-0.144
same,glycan array binding signal (z-score),[29],-0.268
same,glycan array binding signal (z-score),[30],-0.474
same,glycan array binding signal (z-score),[31],-0.364
same,glycan array binding signal (z-score),[32],-0.451
same,glycan array binding signal (z-score),[33],-0.619
same,glycan array binding signal (z-score),[34],-0.247
same,glycan array binding signal (z-score),[35],-0.548
same,glycan array binding signal (z-score),[36],-0.103
same,glycan array binding signal (z-score),[37],-0.491
same,glycan array binding signal (z-score),[38],0.288
same,glycan array binding signal (z-score),[39],-0.633
same,glycan array binding signal (z-score),[40],-0.328
same,glycan array binding signal (z-score),[41],-0.557
same,glycan array binding signal (z-score),[42],-0.393
same,glycan array binding signal (z-score),[43],-0.247
same,glycan array binding signal (z-score),[44],-0.075
same,glycan array binding signal (z-score),[45],-0.398
same,glycan array binding signal (z-score),[46],-0.663
same,glycan array binding signal (z-score),[47],0.793
same,glycan array binding signal (z-score),[48],-0.669
same,glycan array binding signal (z-score),[49],-0.571
same,glycan array binding signal (z-score),[50],-0.659
same,glycan array binding signal (z-score),[51],0.199
same,glycan array binding signal (z-score),[52],0.086
same,glycan array binding signal (z-score),[53],-0.303
same,glycan array binding signal (z-score),[54],0.253
same,glycan array binding signal (z-score),[55],0.066
same,glycan array binding signal (z-score),[56],-0.564
same,glycan array binding signal (z-score),[57],0.602
same,glycan array binding signal (z-score),[58],-0.411
same,glycan array binding signal (z-score),[59],-0.245
same,glycan array binding signal (z-score),[60],-0.333
